This is one part of the list.
What was measured:
Assay in all cases: glycan array binding signal (z-score within array); higher = stronger binding
Settings in all cases: glycan notation: IUPAC condensed, linker removed
[1] = molecular target: 3-Anhydro-Gal(a1-3)Gal(b1-4)3-Anhydro-Gal(a1-3)Gal4S
Outline: (§1)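 The binding signal is a Z-score computed within each array and averaged over linkers. Arrays of the same protein sequence at different concentrations or buffers were also averaged together. Data originate from 3228 arrays in the Consortium for Functional Glycomics database, kept only where the protein sequence was available.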

[2] = molecular target: 3-Anhydro-Gal(a1-3)Gal4S(b1-4)3-Anhydro-Gal(a1-3)Gal4S
Outline: as §1

[3] = molecular target: 3-Anhydro-Gal(a1-3)Gal4S(b1-4)3-Anhydro-Gal(a1-3)Gal4S(b1-4)3-Anhydro-Gal(a1-3)Gal4S
Outline: as §1

[4] = molecular target: 3-Anhydro-Gal(a1-3)Gal4S(b1-4)3-Anhydro-Gal(a1-3)Gal4S(b1-4)3-Anhydro-Gal(a1-3)Gal4S(b1-4)3-Anhydro-Gal(a1-3)Gal4S
Outline: as §1

[5] = molecular target: 3-Anhydro-Gal(a1-3)Gal4S(b1-4)3-Anhydro-Gal2S(a1-3)Gal4S(b1-4)3-Anhydro-Gal(a1-3)Gal4S
Outline: as §1

[6] = molecular target: 3dGal(b1-3)[Fuc(a1-4)]Glc
Outline: as §1

[7] = molecular target: 3dGal(b1-4)Glc
Outline: as §1

[8] = molecular target: Ara(a1-5)Ara(a1-5)Ara(a1-5)Ara(a1-5)Ara(a1-5)Ara
Outline: as §1

[9] = molecular target: Ara(a1-5)Ara(a1-5)Ara(a1-5)Ara(a1-5)Ara(a1-5)Ara(a1-5)Ara
Outline: as §1

[10] = molecular target: Fuc(a1-2)Gal
Outline: as §1

[11] = molecular target: Fuc(a1-2)Gal(b1-3)GlcNAc(b1-3)Gal(b1-4)Glc
Outline: as §1

[12] = molecular target: Fuc(a1-2)Gal(b1-3)GlcNAc(b1-3)[Fuc(a1-3)[Gal(b1-4)]GlcNAc(b1-6)]Gal(b1-4)Glc
Outline: as §1

[13] = molecular target: Fuc(a1-2)Gal(b1-3)[Fuc(a1-4)]GlcNAc(b1-3)Gal(b1-4)Glc
Outline: as §1

[14] = molecular target: Fuc(a1-2)Gal(b1-3)[Fuc(a1-4)]GlcNAc(b1-3)Gal(b1-4)[Fuc(a1-3)]GlcNAc(b1-3)Gal(b1-4)Glc
Outline: as §1

[15] = molecular target: Fuc(a1-2)Gal(b1-3)[Fuc(a1-4)]GlcNAc(b1-3)[Fuc(a1-2)]Gal(b1-4)Glc
Outline: as §1

[16] = molecular target: Fuc(a1-2)Gal(b1-3)[Fuc(a1-4)]GlcNAc(b1-3)[Fuc(a1-3)[Gal(b1-4)]GlcNAc(b1-6)]Gal(b1-4)Glc
Outline: as §1

[17] = molecular target: Fuc(a1-2)Gal(b1-3)[Fuc(a1-4)]GlcNAc(b1-3)[Gal(b1-4)GlcNAc(b1-6)]Gal(b1-4)Glc
Outline: as §1

[18] = molecular target: Fuc(a1-2)Gal(b1-4)[Fuc(a1-3)]GlcNAc(b1-3)Gal(b1-4)Glc
Outline: as §1

[19] = molecular target: Fuc(a1-2)Gal(b1-4)[Fuc(a1-3)]GlcNAc(b1-3)[Fuc(a1-2)]Gal(b1-4)Glc
Outline: as §1

[20] = molecular target: Fuc(a1-2)[Gal(a1-3)]Gal
Outline: as §1

[21] = molecular target: Fuc(a1-2)[Gal(a1-3)]Gal(b1-4)GlcNAc(b1-3)Gal(b1-4)Glc
Outline: as §1

[22] = molecular target: Fuc(a1-2)[GalNAc(a1-3)]Gal
Outline: as §1

[23] = molecular target: Fuc(a1-2)[GalNAc(a1-3)]Gal(b1-3)GlcNAc(b1-3)Gal(b1-4)Glc
Outline: as §1

[24] = molecular target: Fuc(a1-2)[GalNAc(a1-3)]Gal(b1-3)[Fuc(a1-4)]GlcNAc(b1-3)Gal(b1-4)Glc
Outline: as §1

[25] = molecular target: Fuc(a1-2)[Neu5Ac(bond)]Gal(b1-3)GlcNAc(b1-3)Gal(b1-4)Glc
Outline: as §1

[26] = molecular target: Fuc(a1-3)GlcNAc6S
Outline: as §1

[27] = molecular target: Fuc(a1-3)[3dGal(b1-4)]Glc
Outline: as §1

[28] = molecular target: Fuc(a1-3)[Gal(b1-4)]GlcNAc
Outline: as §1

[29] = molecular target: Fuc(a1-3)[Gal(b1-4)]GlcNAc(b1-3)Gal(b1-4)Glc
Outline: as §1

[30] = molecular target: Fuc(a1-3)[Gal(b1-4)]GlcNAc(b1-3)Gal(b1-4)[Fuc(a1-3)]Glc
Outline: as §1

[31] = molecular target: Fuc(a1-3)[Gal(b1-4)]GlcNAc(b1-3)[Fuc(a1-2)]Gal(b1-4)Glc
Outline: as §1

[32] = molecular target: Fuc(a1-3)[Gal(b1-4)]GlcNAc(b1-3)[Fuc(a1-3)[Gal(b1-4)]GlcNAc(b1-6)]Gal(b1-4)Glc
Outline: as §1

[33] = molecular target: Fuc(a1-3)[Gal3S(b1-4)]Glc
Outline: as §1

[34] = molecular target: Fuc(a1-3)[Gal3S(b1-4)]GlcNAc
Outline: as §1

[35] = molecular target: Fuc(a1-3)[Gal3S(b1-4)]GlcNAc(b1-3)Gal(b1-4)Glc
Outline: as §1

[36] = molecular target: Fuc(a1-3)[Gal3S(b1-4)]GlcNAc6S(b1-3)Gal(b1-4)Glc
Outline: as §1

[37] = molecular target: Fuc(a1-3)[Gal6S(b1-4)]GlcNAc(b1-3)Gal(b1-4)Glc
Outline: as §1

[38] = molecular target: Fuc(a1-6)GlcNAc
Outline: as §1

[39] = molecular target: Gal(a1-3)Gal(b1-4)Gal(a1-3)Gal
Outline: as §1

[40] = molecular target: Gal(a1-4)Gal(b1-4)GlcNAc
Outline: as §1

[41] = molecular target: Gal(b1-3)GalNAc
Outline: as §1

[42] = molecular target: Gal(b1-3)GalNAc(b1-4)Gal(b1-4)Glc
Outline: as §1

[43] = molecular target: Gal(b1-3)GalNAc(b1-4)Gal3S(b1-4)Glc
Outline: as §1

[44] = molecular target: Gal(b1-3)GalNAc(b1-4)[Neu5Ac(a2-3)]Gal(b1-4)Glc
Outline: as §1

[45] = molecular target: Gal(b1-3)GalNAc(b1-4)[Neu5Gc(a2-3)]Gal(b1-4)Glc
Outline: as §1

[46] = molecular target: Gal(b1-3)GlcNAc
Outline: as §1

[47] = molecular target: Gal(b1-3)GlcNAc(b1-3)Gal(b1-4)Glc
Outline: as §1

[48] = molecular target: Gal(b1-3)GlcNAc(b1-3)Gal(b1-4)GlcNAc(b1-3)Gal(b1-4)Glc
Outline: as §1

[49] = molecular target: Gal(b1-3)GlcNAc(b1-3)Gal(b1-4)GlcNAc(b1-6)[Gal(b1-3)GlcNAc(b1-3)]Gal(b1-4)Glc
Outline: as §1

[50] = molecular target: Gal(b1-3)GlcNAc(b1-3)Gal(b1-4)[Fuc(a1-3)]GlcNAc(b1-3)Gal(b1-4)Glc
Outline: as §1

[51] = molecular target: Gal(b1-3)GlcNAc(b1-3)Gal(b1-4)[Fuc(a1-3)]GlcNAc(b1-6)[Gal(b1-3)GlcNAc(b1-3)]Gal(b1-4)Glc
Outline: as §1

[52] = molecular target: Gal(b1-3)GlcNAc(b1-3)[Fuc(a1-3)[Gal(b1-4)]GlcNAc(b1-6)]Gal(b1-4)Glc
Outline: as §1

[53] = molecular target: Gal(b1-3)GlcNAc(b1-3)[Fuc(a1-3)[Gal(b1-4)]GlcNAc(b1-6)]Gal(b1-4)]GlcNAc(b1-6)[Gal(b1-4)]GlcNAc(b1-3)]Gal(b1-4)Glc
Outline: as §1

[54] = molecular target: Gal(b1-3)GlcNAc(b1-3)[Gal(b1-4)GlcNAc(b1-6)]Gal(b1-4)Glc
Outline: as §1

[55] = molecular target: Gal(b1-3)GlcNAc(b1-3)[Gal(b1-4)GlcNAc(b1-6)]Gal(b1-4)GlcNAc(b1-6)[Gal(b1-3)GlcNAc(b1-3)]Gal(b1-4)Glc
Outline: as §1

[56] = molecular target: Gal(b1-3)[Fuc(a1-4)]GlcNAc
Outline: as §1

[57] = molecular target: Gal(b1-3)[Fuc(a1-4)]GlcNAc(b1-3)Gal(b1-4)Glc
Outline: as §1

[58] = molecular target: Gal(b1-3)[Fuc(a1-4)]GlcNAc(b1-3)Gal(b1-4)[Fuc(a1-3)]Glc
Outline: as §1

[59] = molecular target: Gal(b1-3)[Fuc(a1-4)]GlcNAc(b1-3)Gal(b1-4)[Fuc(a1-3)]GlcNAc(b1-3)Gal(b1-4)Glc
Outline: as §1

[60] = molecular target: Gal(b1-3)[Fuc(a1-4)]GlcNAc(b1-3)Gal(b1-4)[Fuc(a1-3)]GlcNAc(b1-6)[Gal(b1-3)[Fuc(a1-4)]GlcNAc(b1-3)]Gal(b1-4)Glc
Outline: as §1

B1: CLECSF8 (Mus musculus), Q9Z2H6 (protein)
chain: HYFLRWTRGSVVKLSDYHTRVTCIREEPQPGATGGTWTCCPVSWRAFQSNCYFPLNDNQTWHESERNCSGMSSHLVTINTEAEQNFVTQLLDKRFSYFLGLADENVEGQWQWVDKTPFNPHTVFWEKGESNDFMEEDCVVLVHVHEKWVWNDFPCHFEVRRICKLPGITFNWKPSK
- glycan array binding signal (z-score) [1]: -0.424
- glycan array binding signal (z-score) [2]: -0.424
- glycan array binding signal (z-score) [3]: -0.424
- glycan array binding signal (z-score) [4]: -0.424
- glycan array binding signal (z-score) [5]: -0.424
- glycan array binding signal (z-score) [6]: -0.424
- glycan array binding signal (z-score) [7]: 0.072
- glycan array binding signal (z-score) [8]: 0.313
- glycan array binding signal (z-score) [9]: 0.899
- glycan array binding signal (z-score) [10]: 1.8
- glycan array binding signal (z-score) [11]: -0.424
- glycan array binding signal (z-score) [12]: -0.424
- glycan array binding signal (z-score) [13]: -0.397
- glycan array binding signal (z-score) [14]: 1.03
- glycan array binding signal (z-score) [15]: -0.424
- glycan array binding signal (z-score) [16]: -0.424
- glycan array binding signal (z-score) [17]: -0.424
- glycan array binding signal (z-score) [18]: -0.424
- glycan array binding signal (z-score) [19]: -0.424
- glycan array binding signal (z-score) [20]: -0.424
- glycan array binding signal (z-score) [21]: -0.424
- glycan array binding signal (z-score) [22]: -0.223
- glycan array binding signal (z-score) [23]: -0.424
- glycan array binding signal (z-score) [24]: -0.424
- glycan array binding signal (z-score) [25]: -0.424
- glycan array binding signal (z-score) [26]: -0.102
- glycan array binding signal (z-score) [27]: 1.07
- glycan array binding signal (z-score) [28]: -0.413
- glycan array binding signal (z-score) [29]: -0.424
- glycan array binding signal (z-score) [30]: -0.144
- glycan array binding signal (z-score) [31]: -0.424
- glycan array binding signal (z-score) [32]: -0.424
- glycan array binding signal (z-score) [33]: -0.424
- glycan array binding signal (z-score) [34]: -0.424
- glycan array binding signal (z-score) [35]: -0.424
- glycan array binding signal (z-score) [36]: -0.401
- glycan array binding signal (z-score) [37]: -0.424
- glycan array binding signal (z-score) [38]: -0.424
- glycan array binding signal (z-score) [39]: -0.424
- glycan array binding signal (z-score) [40]: -0.424
- glycan array binding signal (z-score) [41]: -0.424
- glycan array binding signal (z-score) [42]: -0.424
- glycan array binding signal (z-score) [43]: -0.424
- glycan array binding signal (z-score) [44]: -0.424
- glycan array binding signal (z-score) [45]: -0.424
- glycan array binding signal (z-score) [46]: -0.321
- glycan array binding signal (z-score) [47]: -0.424
- glycan array binding signal (z-score) [48]: -0.424
- glycan array binding signal (z-score) [49]: -0.424
- glycan array binding signal (z-score) [50]: -0.424
- glycan array binding signal (z-score) [51]: -0.424
- glycan array binding signal (z-score) [52]: -0.424
- glycan array binding signal (z-score) [53]: -0.424
- glycan array binding signal (z-score) [54]: 0.317
- glycan array binding signal (z-score) [55]: 0.313
- glycan array binding signal (z-score) [56]: -0.424
- glycan array binding signal (z-score) [57]: -0.424
- glycan array binding signal (z-score) [58]: -0.424
- glycan array binding signal (z-score) [59]: -0.352
- glycan array binding signal (z-score) [60]: -0.424

From the supplement of paper PMC8728848
